Source: ChEMBL document CHEMBL4888484, “Replenishing the malaria drug discovery pipeline: Screening and hit evaluation of the MMV Hit Generation Library 1 (HGL1) against asexual blood stage Plasmodium falciparum ,using a nano luciferase reporter read-out” (2022)
Hit rate of the full screen: of about 150,000 compounds, about 540 (0.36%) showed an effect of 50% or more. The list shows a part of the results.

These compounds were tested on Plasmodium falciparum (assay: Primary screen in NF54 nanoGlo assay, in single point, at 2uM, 72h; a lower Z score goes with more inhibition). Conditions: timepoint 72 hour.
Format: functional, Erythrocyte

Structure (SMILES) | % Inhibition [%] | Z score
Cc1cccc(CN2CCN(c3nc(C)ccc3C#N)C[C@@H]2CCO)n1 | -6 | 0.81
COC(=O)[C@H](C)N1CCn2nc(CCC(=O)NC3CCCC3)cc2C1 | -2 | 0.44
O=C(NC[C@H]1COCCO1)c1cccc(NC(=O)c2nsc3ccccc23)c1 | -8 | 1.37
CCC(c1ccccc1)S(=O)(=O)C(C)c1nnnn1C1CC1 (stereo not drawn) | 9 | -1.35
O=C(Nc1cccc2c1C(=O)N(c1ccccc1)C2=O)c1ccccc1F | -12 | 1.68
COCc1nsc(NC(C)C2CCCO2)n1 (stereo not drawn) | -9 | 1.64
O=C(CN1CCOc2cc(F)c(Br)cc21)N1CCC1 | -11 | 1.66
COCC1(CNC(=O)[C@H](C)N(C)C2CCCCC2)CCC1 | -9 | 1.64
CC(C)(C)c1ccn(C[C@H]2CCS(=O)(=O)C2)c(=O)c1 | -6 | 1.19
CN1CCC(Oc2cc(NC(=O)c3cscn3)ccn2)CC1 | -16 | 1.85
COc1ccc(CCC(=O)Nc2cc(OC)ncn2)cc1 | -5 | 0.94
Cc1noc2ncnc(N3CCN(Cc4ccco4)C[C@H](O)C3)c12 | -16 | 1.64
O=C(NC1CCC12CCCC2)C1CCn2ccnc2C1 (stereo not drawn) | 6 | -1.17
O=C(CCc1cccs1)NC1CCCC1 | 13 | -1.2
C=CCn1nc(C(=O)N(C)C)c2c1CC[C@H](N(CC)CCN(CC)CC)C2 | -12 | 1.38
O=C(Nc1ccc(F)cc1)c1nscc1NCc1ccncc1 | -5 | 0.84
CN1C2CCC1CN(c1nnc(-c3ccccc3)s1)CC2 (stereo not drawn) | 5 | -0.74
OCC#Cc1ccc(-c2nccn2CCN2CCOCC2)s1 | -7 | 1.33
CCCNc1ncc(CN2C[C@@H]3CC[C@H]2CN(Cc2ccccc2)C3)cn1 | -10 | 1.63
CCc1nn(C)c(Cl)c1CN(C)C[C@H]1COCCO1 | -19 | 2.05
Cc1cc(N2CC[C@H](OCc3csc(C)n3)C2)c2ccccc2n1 | -43 | 5.02

Structure (SMILES) | % Inhibition [%] | Z score
CN(C)c1ccc(Br)c(S(=O)(=O)Nc2c(C#N)cnn2CCC#N)c1 | -20 | 3.49
COC(=O)N1CC[C@H](Nc2cc(C#N)c3ccccc3n2)C1 | -10 | 1.16
c1cncc(-c2nccn2-c2ccc(-c3nnn[nH]3)cc2)c1 | -3 | 0.42
CCN(C(=O)C(C)OC(=O)C1Cc2ccccc2C(=O)O1)C1CCCCC1 (stereo not drawn) | -1 | 0.19
CCc1onc(C)c1[C@@H]1CCCN1C(=O)c1nn(C)cc1Cl | -19 | 2.53
CCC1CN(C(=O)c2cnn3ccc(C)nc23)CC1N1CCOCC1 (stereo not drawn) | 4 | -0.37
O=C(Cn1nc(COc2ccccc2)oc1=S)Nc1ccc2c(c1)OCO2 | -42 | 4.87
CC1CCN(C(=O)C[C@@H](CN2Cc3ccccc3C2=O)c2ccc(Cl)cc2)CC1 | 0 | 0
COc1ccc(C(=O)N2CCC(F)(C(=O)NCC3CC3)CC2)cc1F | -12 | 1.49
CCc1nc(C)sc1CNC(=O)[C@H]1CCCN(C(C)C)C1 | -13 | 1.35
CN(C)[C@@H](CNC(=O)c1ccc2c(c1)OCCO2)c1ccsc1 | -9 | 1.11
CN1CCN([C@H]2CCN(Cc3cc4ccccc4o3)C2)CC1 | -2 | 0.39
Cc1ncn(CC2CCN(S(=O)(=O)c3ccc4c(c3)CCO4)CC2)c(=O)c1C | -5 | 0.68
Cc1nc(NC(=O)NCc2cc(C(F)F)on2)nn1C | -6 | 0.79
Cn1nc(-c2ccccn2)c2[nH]c(-c3cccc(Cl)c3)nc21 | -9 | 1.17
CC(C)[C@@H]1CN(C(=O)Nc2ccc3c(c2)OC2(CCCCC2)O3)CCO1 | -5 | 0.59
Cc1ccc2sc(N(Cc3ccccn3)C(=O)CN3C(=O)CCC3=O)nc2c1C | -18 | 2.32
Cc1cnc(CN2C[C@]3(CCCN(C(=O)c4ccc(O)cc4)C3)CCC2=O)cn1 | -8 | 1.21
Cc1cc(C)cc(NC(=O)Nc2ccc3nc4n(c(=O)c3c2)CCCC4)c1 | 2 | -0.22
CCOc1c(Cl)cc(NC(=O)N[C@H]2CCO[C@@H]2c2ccncc2)cc1Cl | 11 | -1.27
Cc1ncsc1CCN1CCC(C(=O)N(C)c2ccccc2)CC1 | -5 | 0.52

Structure (SMILES) | % Inhibition [%] | Z score
CCOc1ccc(NC(=O)N2CC[C@@]3(C2)C(=O)N(C)c2ccccc23)cc1 | -7 | 0.89
Cc1ccc(C(=O)N2CCN(C(=O)CN3C(=O)CCC3=O)CC2)c(O)c1 | -4 | 0.54
CC(C)CCNC(=O)CCn1cncn1 | -7 | 0.79
CN(C[C@H]1Cc2ccccc2CO1)C(=O)c1nc2ccccc2s1 | 2 | -0.28
O=C(Nc1cccnc1)N[C@H]1CO[C@@H](CN2CCC(F)(F)CC2)[C@@H]1O | 3 | -0.55
O=C(NCc1ccccc1F)C1CCN(c2cncnc2N2CCCCC2)CC1 | -1 | 0.12
COc1cc(-c2cc(-c3ccc(N(C)C)nc3)c(C#N)c(N)n2)ccc1O | 1 | -0.06
COC(=O)c1ccc(S(=O)(=O)N2CC(c3ccccn3)C2)n1C | -13 | 2.62
c1nn(Cc2nnc3n2CCCC3)cc1Nc1nc(C2CC2)ns1 | -6 | 1.11
CC(=O)NC[C@@H]1C[C@H](F)CN1S(=O)(=O)c1c(C)nn(C)c1Cl | -7 | 1.34
Cc1cnc(C)c(NCC[C@H]2CCCOC2)n1 | -1 | 0.09
O=C(Nc1ccccc1N1CCCC1=O)c1cc(Cl)cc(Cl)c1 | -8 | 1.13
O=S1(=O)CC(C2CN(c3cc(C4CC4)nc(C4CC4)n3)C2)C1 | -5 | 0.92
Cc1ccc(C(=O)N2CCC([C@H](NC(=O)CC(C)C)C(=O)N3CCCCC3)CC2)cc1 | -8 | 0.97
CCOC(=O)N1CCC(n2ccnc2-c2nccn2C(C)C)CC1 | -11 | 1.32
CN(C)c1ccc([C@H]2C[C@@H]2C(=O)O)cc1 | 1 | -0.18
O=C(c1nc2ccc(Cl)cn2c1CNC1(c2ccccc2)CC1)N1CCCCCCC1 | -8 | 1.12
Cc1cc(CN2CCCN(C(=O)c3scnc3C)CC2)c(C)s1 | -12 | 1.39
N#Cc1ccc(N2CCC[C@@H]2CO)c(F)c1 | -12 | 2.35
C[C@@H](C(=O)NCC1(O)CCC(C)(C)CC1)c1cncnc1 | -7 | 0.65
COc1cc(OC)c(NC(=O)CCNC(=O)Cn2cnc3ccccc3c2=O)cc1Cl | 6 | -0.68

Structure (SMILES) | % Inhibition [%] | Z score
O=C(N[C@H]1CC(=O)N(c2ccc3c(c2)OCCO3)C1)C1CCCCC1 | -8 | 1.53
COc1cccc(N2CCN(CC(=O)Nc3ccn(C)n3)[C@@H](C)C2=O)c1 | -14 | 2.11
Cc1cc(C)nc(Nc2cccc(NC(=O)COc3ccc(Cl)cc3)c2)n1 | -13 | 1.68
CC(C)c1cc(C(=O)N2CCc3ccccc3C2)no1 | -1 | 0.08
Nc1cc(N2CCn3nc(CNC(=O)C4CCCC4)cc3C2)nc(N)n1 | -6 | 0.81
Cc1c(C(=O)N2CCCCCC2)c(S(=O)(=O)N(C(C)C)C2CCCCC2)c(C)n1C | -11 | 2.03
CCN(CC)S(=O)(=O)NCc1ccc(OC)c(OC)c1 | 10 | -1.29
CC1CCN(C(=O)c2cccc(-c3ccc(Oc4ccc(N)cn4)cc3)c2)CC1 | -19 | 2.6
CCOc1ccc(N([C@@H](C)C(=O)Nc2ccccc2C(=O)NCc2ccco2)S(C)(=O)=O)cc1 | -15 | 1.76
Cc1nnc(NC(=O)NCc2ccc(N3CCCCC3)nc2)s1 | 9 | -1.15
CN(C(=O)CCc1cncc(F)c1)c1cccc(S(C)(=O)=O)c1 | -8 | 1.55
CC(C)(C)C1CCc2[nH]nc(C(=O)NCC3CC4C=CC3C4)c2C1 (stereo not drawn) | -11 | 1.33
CC(=O)N[C@H]1CCN(C(=O)c2coc(COc3cccc4cccnc34)n2)C1 | -2 | 0.45
CC1CCC2(CC1)NC(=O)N(Cc1cc(Cl)c3c(c1)OCCO3)C2=O (stereo not drawn) | 7 | -0.8
Cc1ccc(S(=O)(=O)N2CCN(C(=O)CCc3cnccn3)CC2)cc1 | -5 | 0.74
Cc1c(NC(=O)c2cc3c(s2)CCCC3)c(=O)n(-c2ccccc2)n1C | -1 | 0.1
CC(=O)C[n+]1ccc2ccccc2c1Cc1ccccc1 | -1 | 0.1
COc1cc(C(=O)NCC(=O)n2nc(C)cc2C)cc(OC)c1OC | -5 | 0.85
COc1cc(C(=O)N2CCC[C@H]2c2nonc2C)ccc1OC1CCN(C(C)=O)CC1 | -7 | 1.23
COc1ncccc1NC(=O)c1cccc(CN2[C@@H]3CC[C@H]2C[C@@H](O)C3)c1 | -22 | 2.49
CCC1CN(c2ncnc3c2oc2ccccc23)CC(C)[S+]1[O-] (stereo not drawn) | 1 | -0.16
